# Measured values taken from a collection of fitness landscapes (doi:10.1016/j.celrep.2020.107928).
# Whole data set: some 81,000 sequences, median “one-hybrid fitness for binding parS DNA” near -0.17, cut for the highest 2% near 0.51. The list shows a part of the results.
# B1: Caulobacter ParB omega fusion; a variant is named by its letters at X, in order, B8GW30 (parent)
# chain: MESVVVGEPGMSEGRRGLGRGLSALLGEVDAAPAQAPGEQLGGSREAPIEILQRNPDQPRRTFREEDLEDLSNSIREKGVLQPILVRPSPDTAGEYQIVAGERAWRAAQRAGLKTVPIMVRELDDLAVLEIGIIENVQRADLNVLEEALSYKVLMEKFERTQENIAQTIGKSXSHVANXMRLLXLPDEVQSYLVSGELTAXHARAIAAAADPVALAKQIIEGGLSVRETEALARKAPNLSAGKSKGGRPPRVKDTDTQALESDLSSVLGLDVSIDHRGSTGTLTITYATLEQLDDLCNRLTRGI
# Variants of: B1
# Experiment: one-hybrid fitness for binding parS DNA (scaled: cognate 1, non-cognate 0); higher = stronger binding
# Conditions: with parS DNA site
# How it was run: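 In E. coli USO, a HIS3 reporter with its site placed 19 bp from the promoter was used to select Caulobacter ParB variants randomised at four specificity codons. Growth lasted 48 hours at 37°C on histidine-free M9 containing 0.1 mM IPTG and 5 mM 3-AT. Fitness was taken as the log change in variant-to-wild-type read ratio from Illumina sequencing of pre- and post-selection plasmids, rescaled between the non-cognate and cognate sites.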
row,Variant,one-hybrid fitness for binding parS DNA
1,PNKN,≤ 0.2
2,TFHT,≤ 0.2
3,QIWC,≤ 0.2
4,REPL,≤ 0.2
5,YHSL,≤ 0.2
6,KTMT,≤ 0.2
7,FCGS,≤ 0.2
8,SPDT,≤ 0.2
9,QCGF,≤ 0.2
10,APNI,≤ 0.2
11,LKHS,≤ 0.2
12,LNPG,≤ 0.2
13,VLYE,≤ 0.2
14,SLYS,≤ 0.2
15,APPF,≤ 0.2
16,TCPG,≤ 0.2
17,PGKW,≤ 0.2
18,SGFR,≤ 0.2
19,HTVW,≤ 0.2
20,VKLR,≤ 0.2
21,RMQT,0.921
22,NPPF,≤ 0.2
23,ANGR,≤ 0.2
24,SHGN,≤ 0.2

row,Variant,one-hybrid fitness for binding parS DNA
1,LQPD,≤ 0.2
2,LCTL,≤ 0.2
3,TQSD,≤ 0.2
4,WSNM,≤ 0.2
5,VIWS,≤ 0.2
6,AYIK,≤ 0.2
7,RGMT,0.457
8,LTVS,≤ 0.2
9,KDRT,≤ 0.2
10,CSDF,≤ 0.2
11,RTET,0.75
12,RCTE,≤ 0.2
13,RCWG,1.02
14,TSLF,≤ 0.2
15,YDHY,≤ 0.2
16,ACMT,≤ 0.2
17,QGGN,≤ 0.2
18,NHLM,≤ 0.2
19,FLPR,≤ 0.2
20,ACNL,≤ 0.2
21,GTMN,≤ 0.2
22,KKLS,≤ 0.2
23,KTYP,≤ 0.2
24,PGNL,≤ 0.2

row,Variant,one-hybrid fitness for binding parS DNA
1,FKTV,≤ 0.2
2,CPQR,≤ 0.2
3,SRRC,≤ 0.2
4,VNSR,≤ 0.2
5,QYKG,≤ 0.2
6,RTIN,0.355
7,QMWL,≤ 0.2
8,TRVE,≤ 0.2
9,LTNC,≤ 0.2
10,KVRQ,≤ 0.2
11,NGSG,≤ 0.2
12,TGHG,≤ 0.2
13,MWKT,≤ 0.2
14,YADV,≤ 0.2
15,SCFI,≤ 0.2
16,RLIL,≤ 0.2
17,NLRW,≤ 0.2
18,RVIQ,≤ 0.2
19,MIIG,≤ 0.2
20,LGTR,≤ 0.2
21,IQRG,≤ 0.2
22,FPSN,≤ 0.2
23,ETTC,≤ 0.2
24,MMSG,≤ 0.2

row,Variant,one-hybrid fitness for binding parS DNA
1,RPDC,≤ 0.2
2,YLYC,≤ 0.2
3,RWKW,≤ 0.2
4,SQVG,≤ 0.2
5,HMWW,≤ 0.2
6,NSAS,≤ 0.2
7,QPIG,≤ 0.2
8,TWRW,≤ 0.2
9,ALQA,≤ 0.2
10,RLGW,0.241
11,VDKG,≤ 0.2
12,RCEV,≤ 0.2
13,VRAG,≤ 0.2
14,PHIS,≤ 0.2
15,RCFF,0.256
16,PACM,≤ 0.2
17,MQVG,≤ 0.2
18,MCTY,≤ 0.2
19,CFRG,≤ 0.2
20,RAMQ,≤ 0.2
21,SELT,≤ 0.2
22,CHSR,≤ 0.2
23,QSLL,≤ 0.2
24,IPLG,≤ 0.2

row,Variant,one-hybrid fitness for binding parS DNA
1,ACWG,≤ 0.2
2,RGES,0.554
3,PCTI,≤ 0.2
4,RGLN,≤ 0.2
5,FTIT,≤ 0.2
6,CSRS,≤ 0.2
7,SDSE,≤ 0.2
8,SQMV,≤ 0.2
9,VWTG,≤ 0.2
10,EVES,≤ 0.2
11,DSAT,≤ 0.2
12,EGGS,≤ 0.2
13,WMYS,≤ 0.2
14,QHPM,≤ 0.2
15,SIFS,≤ 0.2
16,RQLS,1.02
17,ALHV,≤ 0.2
18,IYCR,≤ 0.2
19,MLPG,≤ 0.2
20,WWTT,≤ 0.2
21,WQTR,≤ 0.2
22,GVCC,≤ 0.2
23,FWLG,≤ 0.2
24,SYNL,≤ 0.2

row,Variant,one-hybrid fitness for binding parS DNA
1,RFMC,0.824
2,DVSG,≤ 0.2
3,VQGC,≤ 0.2
4,AQSP,≤ 0.2
5,YMTE,≤ 0.2
6,CQAK,≤ 0.2
7,MTSC,≤ 0.2
8,PRSC,≤ 0.2
9,ISRS,≤ 0.2
10,DSPK,≤ 0.2
11,RICE,≤ 0.2
12,LVPW,≤ 0.2
13,PVSC,≤ 0.2
14,QKQS,≤ 0.2
15,AAHC,≤ 0.2
16,LRGF,≤ 0.2
17,PKGT,≤ 0.2
18,IYDR,≤ 0.2
19,AFVV,≤ 0.2
20,THNS,≤ 0.2
21,PNVY,≤ 0.2
22,NTCD,≤ 0.2
23,ALDH,≤ 0.2
24,RKYN,0.297

row,Variant,one-hybrid fitness for binding parS DNA
1,WREE,≤ 0.2
2,RSHH,≤ 0.2
3,RCGD,0.208
4,RLAT,0.938
5,AQAE,≤ 0.2
6,MCDR,≤ 0.2
7,DSVY,≤ 0.2
8,HARQ,≤ 0.2
9,MVKG,≤ 0.2
10,QWSF,≤ 0.2
11,FAVC,≤ 0.2
12,DSKM,≤ 0.2
13,PGFP,≤ 0.2
14,RHRV,≤ 0.2
15,VTTG,≤ 0.2
16,ACPM,≤ 0.2
17,SHKY,≤ 0.2
18,SRLC,≤ 0.2
19,NHAL,≤ 0.2
20,CHSW,≤ 0.2
21,GMMG,≤ 0.2
22,VDWG,≤ 0.2
23,TGKG,≤ 0.2
24,RVWI,≤ 0.2

row,Variant,one-hybrid fitness for binding parS DNA
1,ILPS,≤ 0.2
2,KARQ,≤ 0.2
3,WDKR,≤ 0.2
4,VRCA,≤ 0.2
5,QSFQ,≤ 0.2
6,DRRL,≤ 0.2
7,DNPI,≤ 0.2
8,LPIR,≤ 0.2
9,RLAE,≤ 0.2
10,MSRV,≤ 0.2
11,GTLV,≤ 0.2
12,NPHD,≤ 0.2
13,VRLH,≤ 0.2
14,LGHS,≤ 0.2
15,DPAW,≤ 0.2
16,STQV,≤ 0.2
17,PHDF,≤ 0.2
18,RMFK,≤ 0.2
19,NARF,≤ 0.2
20,WEDR,≤ 0.2
21,LLKQ,≤ 0.2
22,GQPI,≤ 0.2
23,YYKV,≤ 0.2
24,NVDT,≤ 0.2

row,Variant,one-hybrid fitness for binding parS DNA
1,PGEY,≤ 0.2
2,PEDV,≤ 0.2
3,QRSR,≤ 0.2
4,QQKS,≤ 0.2
5,GDGC,≤ 0.2
6,TDDL,≤ 0.2
7,FYIS,≤ 0.2
8,FPQT,≤ 0.2
9,PHNC,≤ 0.2
10,VLET,≤ 0.2
11,HWSY,≤ 0.2
12,QGTN,≤ 0.2
13,QWDG,≤ 0.2
14,NPKV,≤ 0.2
15,GFTA,≤ 0.2
16,RFAQ,≤ 0.2
17,DKPG,≤ 0.2
18,QMNK,≤ 0.2
19,IPTA,≤ 0.2
20,FLLV,≤ 0.2
21,CANR,≤ 0.2
22,YRLY,≤ 0.2
23,EELC,≤ 0.2
24,AMKR,≤ 0.2

row,Variant,one-hybrid fitness for binding parS DNA
1,PTMT,≤ 0.2
2,LSPN,≤ 0.2
3,SYPK,≤ 0.2
4,QCIF,≤ 0.2
5,SFTC,≤ 0.2
6,TREC,≤ 0.2
7,RTGW,0.272
8,HVVA,≤ 0.2
9,HCAV,≤ 0.2
10,RICQ,0.256
11,SPKW,≤ 0.2
12,RGWD,≤ 0.2
13,RAVC,0.851
14,IEAS,≤ 0.2
15,PPAW,≤ 0.2
16,KPQT,≤ 0.2
17,HTDF,≤ 0.2
18,VEDL,≤ 0.2
19,ICMF,≤ 0.2
20,WNMR,≤ 0.2
21,GVRM,≤ 0.2
22,MGTC,≤ 0.2
23,STTH,≤ 0.2
24,HWDR,≤ 0.2

row,Variant,one-hybrid fitness for binding parS DNA
1,PLGI,≤ 0.2
2,KGGR,≤ 0.2
3,NPLD,≤ 0.2
4,CHMW,≤ 0.2
5,AHKS,≤ 0.2
6,LRQG,≤ 0.2
7,LFDG,≤ 0.2
8,PNFV,≤ 0.2
9,HYHA,≤ 0.2
10,LHRS,≤ 0.2
11,MRPI,≤ 0.2
12,KQAC,≤ 0.2
13,RGEM,≤ 0.2
14,HGGC,≤ 0.2
15,CGRT,≤ 0.2
16,STES,≤ 0.2
17,QRAE,≤ 0.2
18,ASPP,≤ 0.2
19,MTRS,≤ 0.2
20,AEWS,≤ 0.2
21,LNNL,≤ 0.2
22,NDTF,≤ 0.2
23,YPTR,≤ 0.2
24,LDPG,≤ 0.2

row,Variant,one-hybrid fitness for binding parS DNA
1,DLSV,≤ 0.2
2,FRHR,≤ 0.2
3,RQNT,0.889
4,KTYF,≤ 0.2
5,TSGM,≤ 0.2
6,DPRR,≤ 0.2
7,YKCC,≤ 0.2
8,LSTD,≤ 0.2
9,TEEN,≤ 0.2
10,GRQL,≤ 0.2
11,APAR,≤ 0.2
12,RRTG,0.699
13,TMRR,≤ 0.2
14,NRHE,≤ 0.2
15,SPLS,≤ 0.2
16,PRVL,≤ 0.2
17,SIKG,≤ 0.2
18,DEFR,≤ 0.2
19,CGFC,≤ 0.2
20,PGPI,≤ 0.2
21,TGTQ,≤ 0.2
22,DQHR,≤ 0.2
23,RNHT,0.723
24,PKYE,≤ 0.2

row,Variant,one-hybrid fitness for binding parS DNA
1,KLYP,0.319
2,NGYR,≤ 0.2
3,WQQI,≤ 0.2
4,GPEI,≤ 0.2
5,PDVM,≤ 0.2
6,VTIY,≤ 0.2
7,NMNS,≤ 0.2
8,SPPR,≤ 0.2
9,CRRR,≤ 0.2
10,RTNM,0.301
11,IDNE,≤ 0.2
12,QMLI,≤ 0.2
13,ALQG,≤ 0.2
14,NRKG,≤ 0.2
15,LGVS,≤ 0.2
16,MFSS,≤ 0.2
17,AKDT,≤ 0.2
18,VMPH,≤ 0.2
